# Reference: the supplement of paper PMC8728848
# The other results are listed elsewhere or left out.
# Assays:
# Experiment in all cases: glycan array binding signal (z-score within array); higher = stronger binding
# Conditions in all cases: glycan notation: IUPAC condensed, linker removed
# Neu5Ac(a2-6)GalNAc = biological target: Neu5Ac(a2-6)GalNAc
# Summary of the method: (§1)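 The Consortium for Functional Glycomics database supplied 3228 glycan arrays, of which those lacking an available protein sequence were dropped. The binding signal, a within-array Z-score, was averaged across arrays of the same protein sequence and across linkers. Negative scores can be read as non-binding.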
# [1] = biological target: Neu5Ac(a2-6)GalNAc(b1-4)GlcNAc
# Summary of the method: as §1
# [2] = biological target: Neu5Ac(a2-6)GalNAc(b1-4)GlcNAc6S
# Summary of the method: as §1
# [3] = biological target: Neu5Ac(a2-6)GlcNAc(b1-4)GlcNAc
# Summary of the method: as §1
# [4] = biological target: Neu5Ac(a2-6)GlcNAc(b1-4)GlcNAc(b1-4)GlcNAc
# Summary of the method: as §1
# Neu5Ac(a2-8)Neu5Ac = biological target: Neu5Ac(a2-8)Neu5Ac
# Summary of the method: as §1
# [5] = biological target: Neu5Ac(a2-8)Neu5Ac(a2-3)Gal(b1-3)GalNAc(b1-4)[Neu5Ac(a2-8)Neu5Ac(a2-3)]Gal(b1-4)Glc
# Summary of the method: as §1
# [6] = biological target: Neu5Ac(a2-8)Neu5Ac(a2-3)Gal(b1-4)Glc
# Summary of the method: as §1
# [7] = biological target: Neu5Ac(a2-8)Neu5Ac(a2-3)[Gal(b1-3)GalNAc(b1-4)]Gal(b1-4)Glc
# Summary of the method: as §1
# [8] = biological target: Neu5Ac(a2-8)Neu5Ac(a2-3)[GalNAc(b1-4)]Gal(b1-4)Glc
# Summary of the method: as §1
# [9] = biological target: Neu5Ac(a2-8)Neu5Ac(a2-8)Neu5Ac
# Summary of the method: as §1
# [10] = biological target: Neu5Ac(a2-8)Neu5Ac(a2-8)Neu5Ac(a2-3)Gal(b1-4)Glc
# Summary of the method: as §1
# [11] = biological target: Neu5Ac(a2-8)Neu5Ac(a2-8)Neu5Ac(a2-3)[GalNAc(b1-4)]Gal(b1-4)Glc
# Summary of the method: as §1
# [12] = biological target: Neu5Ac(a2-8)Neu5Ac(a2-8)Neu5Ac(a2-8)Neu5Ac(a2-3)[GalNAc(b1-4)]Gal(b1-4)Glc
# Summary of the method: as §1
# [13] = biological target: Neu5Ac(b2-6)Gal(b1-4)GlcNAc
# Summary of the method: as §1
# Neu5Ac(b2-6)GalNAc = biological target: Neu5Ac(b2-6)GalNAc
# Summary of the method: as §1
# [14] = biological target: Neu5Ac9Ac(a2-3)Gal(b1-3)GlcNAc
# Summary of the method: as §1
# [15] = biological target: Neu5Ac9Ac(a2-3)Gal(b1-4)GlcNAc
# Summary of the method: as §1
# [16] = biological target: Neu5Ac9Ac(a2-6)Gal(b1-4)GlcNAc
# Summary of the method: as §1
# [17] = biological target: Neu5Gc(a2-3)Gal(b1-3)GlcNAc
# Summary of the method: as §1
# [18] = biological target: Neu5Gc(a2-3)Gal(b1-3)[Fuc(a1-4)]GlcNAc
# Summary of the method: as §1
# Neu5Gc(a2-3)Gal(b1-4)Glc = biological target: Neu5Gc(a2-3)Gal(b1-4)Glc
# Summary of the method: as §1
# [19] = biological target: Neu5Gc(a2-3)Gal(b1-4)GlcNAc
# Summary of the method: as §1
# [20] = biological target: Neu5Gc(a2-3)Gal(b1-4)[Fuc(a1-3)]GlcNAc
# Summary of the method: as §1
# [21] = biological target: Neu5Gc(a2-6)Gal(b1-4)GlcNAc
# Summary of the method: as §1
# Neu5Gc(a2-6)GalNAc = biological target: Neu5Gc(a2-6)GalNAc
# Summary of the method: as §1
# [22] = biological target: Neu5Gc(b2-6)Gal(b1-4)GlcNAc
# Summary of the method: as §1
binder,measurement,setting,value
"RVL (Remusatia vivipara), B5LYJ9 (protein) MAKLLLFLLPAILGLLVPRSAVALGTNYLLSGQTLDTEGHLKNGDFDLVMQDDCNLVLYNGNWQSNTANNGRDCKLTLTDYGELVIKNGDGSTVWKSGAQSVKGNYAAVVHPDGRLVVLGPSVFKIDPWVRGLNSLRFRNIPFTNNLLFSGQVLYGDGRLTAKNHQLVMQGDCNLVLYGGKYGWQSNTHGNGEHCFLRLNHKGELIIKDDDFKTIWSSRSSSKQGEYVLILQDDGFGVIYGPAIFETSSKRSIAAS",glycan array binding signal (z-score),Neu5Ac(a2-6)GalNAc,-0.09
same,glycan array binding signal (z-score),[1],-0.165
same,glycan array binding signal (z-score),[2],-0.509
same,glycan array binding signal (z-score),[3],-0.067
same,glycan array binding signal (z-score),[4],0.035
same,glycan array binding signal (z-score),Neu5Ac(a2-8)Neu5Ac,-0.1
same,glycan array binding signal (z-score),[5],-0.385
same,glycan array binding signal (z-score),[6],-0.125
same,glycan array binding signal (z-score),[7],-0.073
same,glycan array binding signal (z-score),[8],-0.312
same,glycan array binding signal (z-score),[9],-0.197
same,glycan array binding signal (z-score),[10],0.02
same,glycan array binding signal (z-score),[11],0.457
same,glycan array binding signal (z-score),[12],0.546
same,glycan array binding signal (z-score),[13],-0.009
same,glycan array binding signal (z-score),Neu5Ac(b2-6)GalNAc,-0.243
same,glycan array binding signal (z-score),[14],-0.284
same,glycan array binding signal (z-score),[15],0.499
same,glycan array binding signal (z-score),[16],-0.208
same,glycan array binding signal (z-score),[17],-0.19
same,glycan array binding signal (z-score),[18],-0.191
same,glycan array binding signal (z-score),Neu5Gc(a2-3)Gal(b1-4)Glc,-0.251
same,glycan array binding signal (z-score),[19],-0.111
same,glycan array binding signal (z-score),[20],-0.134
same,glycan array binding signal (z-score),[21],-0.153
same,glycan array binding signal (z-score),Neu5Gc(a2-6)GalNAc,-0.34
same,glycan array binding signal (z-score),[22],-0.238
